Data on 94 sequences can be found in paper PMC5836133.

The list shows a part of the results. At the low end of the ranking the order means little.

For this assay, the system named is T1, GST-NbGlk1(82-244).
T1 sequence: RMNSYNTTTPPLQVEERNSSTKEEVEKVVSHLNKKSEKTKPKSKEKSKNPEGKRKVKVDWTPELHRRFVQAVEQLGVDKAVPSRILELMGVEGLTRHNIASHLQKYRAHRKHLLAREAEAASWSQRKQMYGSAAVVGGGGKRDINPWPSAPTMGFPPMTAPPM
The experiment in a line: protein-binding microarray.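 Also: rank-based score ranging −0.5 to +0.5 with E above 0.45 taken as significant binding.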 The conditions noted are these: NbGlk1 is a Golden2-like transcription factor of Nicotiana benthamiana; high values mean tight binding; most listed sequences are background and not binding sites; double strand, one strand shown.
Sequence CACGTCAA registered a binding signal of -0.0566 E-score. Under ATGTGTGC stands -0.0361 E-score; under CAACCAAG, -0.101 E-score; under AAAAATAA, 0.229 E-score. For ATGATCCG the value was 0.101 E-score.

With CAAGCGCC, the binding signal is -0.253 E-score. The sequence ACAAGTCC registered a binding signal of -0.231 E-score. Under AATGAGAT stands 0.312 E-score; under AACGTTCA, -0.169 E-score.

Take AATCTCCG: the binding signal came out at 0.437 E-score. ACGCCATG had a binding signal of -0.0715 E-score.

Take ACTTACGA: the binding signal is 0.151 E-score. Under AAGGACTC stands -0.256 E-score; under ATTTGTAA, 0.266 E-score. Under ACTGAATC stands 0.157 E-score; under ATCAAGCG, 0.0915 E-score; under ACCGCCCA, -0.291 E-score. Under ACATCTTC stands 0.0604 E-score; under AATAACGC, -0.0245 E-score; under ACGTTGAA, -0.0192 E-score. Turning to AGATTCGC, the binding signal was found to be 0.482 E-score. Under AATGCTCG stands -0.17 E-score. For ATGAAGAC the value was -0.0547 E-score; for CACTACTA, 0.0218 E-score.

As for AACATCAT, the binding signal turned out to be 0.000137 E-score.

Sequence ATCAACCG gave a binding signal of -0.117 E-score.

For AGCCAGAC, the binding signal was -0.121 E-score. Under ACTCTGGG stands 0.0676 E-score; under AAATGTAA, 0.141 E-score; under CACGACAG, -0.229 E-score.

For ACTTTCCA, the binding signal is -0.0206 E-score. For AACTCTGG the value was -0.112 E-score; for AAGTTTAA, -0.0311 E-score. As for CAATCACG, the binding signal stood at 0.159 E-score. For AAATCTGC the value was 0.456 E-score.

AGTGAAGA: the binding signal was -0.014 E-score. Under ACGATGTA stands -0.11 E-score; under ACTAAGAA, 0.107 E-score. AGATCCGA came in with a binding signal of 0.307 E-score. For AGTCAAAC the value was -0.0735 E-score.

ATGTCGAG displayed a binding signal of -0.0524 E-score.

ATTGTAAG yielded a binding signal of 0.0633 E-score. On to AGCAGAGA, for which the binding signal is 0.0378 E-score. Under CAACCTTG stands -0.245 E-score. Under AATTTCGA stands 0.259 E-score.

The sequence ATAGTGAT gave a binding signal of 0.0465 E-score.

Turning to ACCGACTG, the binding signal was -0.171 E-score. For AGCAAGCG the value was -0.122 E-score. For AGGTCAAT the value was -0.00434 E-score; for AATCTTAT, 0.377 E-score. For the sequence CACTTGGA, the binding signal was found to be 0.156 E-score. Under ACTCCTCG stands -0.0848 E-score. Under AATACTAA stands 0.164 E-score.

AGTGGGTA gave a binding signal of -0.0607 E-score. For ACAGCGCA the value was -0.0303 E-score. For ATCAGTCC the value was -0.128 E-score; for ATCCTTTA, 0.274 E-score; for ACCCCTAC, -0.258 E-score. For ACGTTTGG the value was -0.00266 E-score; for ATCTAGAT, 0.398 E-score; for ATTCCCGC, 0.178 E-score.

On to AAGGCTTA, for which the binding signal was -0.203 E-score.

CACTGATC: the binding signal worked out at 0.108 E-score.

As to ATCTATAG, the binding signal is 0.288 E-score. AGGCGAGA: the binding signal is -0.0186 E-score. On to AGTGCGAT, for which the binding signal was 0.313 E-score. For AATCATAT the value was 0.28 E-score. In the case of ATTTGCCA, the binding signal was 0.358 E-score. For CAATACGA the value was 0.164 E-score; for CAATCCCG, 0.284 E-score.

ACTGTGTA registered a binding signal of 0.00924 E-score. Under ACCTCGTC stands -0.169 E-score.

As for ACCTGCTC, the binding signal was -0.225 E-score. Under AAAAGGCC stands -0.235 E-score. Under AGTCCTTG stands -0.227 E-score; under ACCGGTCG, -0.149 E-score.

The sequence ACCTATTC showed a binding signal of -0.0697 E-score. In the case of ACCGGAGT, the binding signal is -0.12 E-score. For AAGGAGCC the value was -0.189 E-score.

For AACCGAAG, the binding signal is -0.00877 E-score. Under AAATATTG stands 0.229 E-score; under ACACCGAG, -0.0776 E-score; under AGCCCCCC, -0.288 E-score. Under ACCCGTTG stands -0.317 E-score; under CAATCCGG, 0.328 E-score; under AATAGCGC, -0.0474 E-score.

Turning to AAAGACAC, the binding signal was -0.00667 E-score. For ATGCGAAC the value was -0.0312 E-score. For AAGCATAT the value was 0.213 E-score; for AGGAAAAA, 0.0992 E-score; for ACAATTGG, -0.00064 E-score. Under CACCACCG stands -0.0244 E-score; under ACCCACTA, -0.092 E-score. Regarding ATAGCCAG, the binding signal was -0.134 E-score.
